From publication PMC4336329 (PLoS ONE, 2015)
Among all 310,000 compounds or so, about 14,000 (4.5%) showed an effect of 50% or more. The effect is printed as a negative number. The list shows a part of the results.

Biological target: human ether-à-go-go-related gene (hERG) potassium channel (human, UniProt Q12809)
Test: primary screen, population patch clamp on CHO cells stably expressing hERG
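Note: peak tail current of the secondary pulse compared with the same well before compound.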

Sequence of human ether-à-go-go-related gene (hERG) potassium channel (Q12809 whole entry, looked up): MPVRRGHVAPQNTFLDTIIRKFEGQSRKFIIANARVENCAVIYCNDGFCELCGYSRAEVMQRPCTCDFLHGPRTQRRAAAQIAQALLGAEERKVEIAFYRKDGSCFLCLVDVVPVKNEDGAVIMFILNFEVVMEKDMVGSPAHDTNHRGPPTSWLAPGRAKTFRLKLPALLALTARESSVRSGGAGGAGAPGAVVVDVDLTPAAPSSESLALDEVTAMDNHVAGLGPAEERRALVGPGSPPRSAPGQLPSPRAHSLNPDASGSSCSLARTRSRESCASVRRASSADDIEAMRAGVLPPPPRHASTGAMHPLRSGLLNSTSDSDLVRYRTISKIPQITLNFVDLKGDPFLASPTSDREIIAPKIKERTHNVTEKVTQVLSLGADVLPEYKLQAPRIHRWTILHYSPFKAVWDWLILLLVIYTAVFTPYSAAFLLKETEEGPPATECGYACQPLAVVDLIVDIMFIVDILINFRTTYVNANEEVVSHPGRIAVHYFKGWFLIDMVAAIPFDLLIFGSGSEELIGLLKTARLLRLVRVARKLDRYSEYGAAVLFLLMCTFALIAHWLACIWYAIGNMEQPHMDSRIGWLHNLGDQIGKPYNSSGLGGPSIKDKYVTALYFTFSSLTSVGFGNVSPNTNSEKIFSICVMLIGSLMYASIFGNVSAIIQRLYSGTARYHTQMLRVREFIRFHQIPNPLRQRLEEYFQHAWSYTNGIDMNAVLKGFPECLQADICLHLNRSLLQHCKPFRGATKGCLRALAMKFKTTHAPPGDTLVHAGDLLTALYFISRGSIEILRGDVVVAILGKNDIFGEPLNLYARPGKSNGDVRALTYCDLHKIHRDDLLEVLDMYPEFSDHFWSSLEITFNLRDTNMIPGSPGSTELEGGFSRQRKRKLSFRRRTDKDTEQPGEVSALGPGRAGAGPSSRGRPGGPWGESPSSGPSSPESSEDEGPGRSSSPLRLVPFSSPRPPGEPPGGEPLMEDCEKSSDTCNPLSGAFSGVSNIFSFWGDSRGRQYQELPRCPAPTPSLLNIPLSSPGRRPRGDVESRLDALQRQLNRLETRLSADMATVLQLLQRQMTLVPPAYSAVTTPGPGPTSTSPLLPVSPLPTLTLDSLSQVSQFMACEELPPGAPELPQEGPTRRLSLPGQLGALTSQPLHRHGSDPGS

SMILES	hERG current change (%, negative = inhibition) at 10uM
CC(=O)Nc1ccc(C(=O)NC(CC(=O)O)c2ccc(Cl)cc2)cc1 (stereo not shown)	1.62%
CNc1ccc(/C=C2\CSc3ccccc3C2=O)cc1[N+](=O)[O-]	14.1%
CC(=O)N1CCc2cc(S(=O)(=O)NCCCN3CCCCC3)ccc21	22.9%
COc1nc(N2CCCCCC2)nc(N2CCCCCC2)n1	-2.28%
COc1ccc(CC(=O)OC(C)C(=O)Nc2ccc(S(N)(=O)=O)cc2)cc1 (stereo not shown)	2.59%
O=C(N/N=C/C(Br)=C\c1ccccc1)c1cccs1	-4.13%
O=C(NCc1cccnc1)c1csc2c1CCCC2	18.8%
CC(C)(C)OC(=O)N1CCC(c2cc(=O)n3[nH]cc(C(=O)Nc4ccc(F)c(Cl)c4)c3n2)CC1	6.92%
Cc1onc(-c2c(F)cccc2Cl)c1C(=O)N1CCN(c2ncc(Br)cn2)CC1	-33.7%
c1ccc(Nc2nc3ccccc3o2)cc1	15.7%
C=CCOc1ccc(/C=C2\SC(=Nc3cccnc3)NC2=O)cc1	6.83%
Cl.O=C(O)c1ccc(CNCc2ccccc2F)cc1	5.98%
COc1ccc2c(c1)C=C(CN1CCN(Cc3ccccc3C)C(CCO)C1)CO2 (stereo not shown)	-25.6%
S=C(Nc1ccccc1)Nc1nc2ccccc2n1CCOc1ccccc1	-0.0816%
O=C(CN(c1ccc(Cl)c(Cl)c1)S(=O)(=O)c1ccccc1)N1CCc2ccccc2C1	11.8%
O=C(CN1CCN(Cc2ccccc2)C1=O)NCCCN1CCOCC1	5.12%
CC(C)[C@@H](N)C(=O)NCC1CCC(C(=O)N[C@@H](Cc2ccccc2)C(=O)O)CC1.Cl (stereo partly shown)	16.6%
O=C(Oc1cncc(Cl)c1)c1ccco1	-4.17%
COCc1cc(C)n(CC(=O)Nc2ccc(Cl)cc2Cl)c(=O)c1C#N	4.73%
COC(=O)CNC(=O)c1cc(-c2ccncc2)nc2c(C)c(Cl)ccc12	-27.9%
COc1ccc(CCNC(=O)c2cc(-c3cc(Cl)ccc3O)n[nH]2)cc1OC	1.89%
CC(C)(C)NC(=O)CSc1ccc(C(C)(C)C)cc1	3.01%

SMILES	hERG current change (%, negative = inhibition) at 10uM
CCOc1ccc(N=C2SCC(=O)N2CC)cc1	12.7%
C/C(=N\NC(=O)c1nnn(-c2nonc2N)c1CSc1ccccc1)c1ccco1	10.8%
CC(=O)c1cc2c(cc1NC(=O)CCc1c(C)nc3ncnn3c1C)OCO2	-10.1%
CCOC(=O)C1(Cc2cccc(OC)c2)CCCN(C(=O)c2cc(C)[nH]n2)C1 (stereo not shown)	-7.8%
COCc1cc(C)nc2sc(C(=O)NCCO)c(-n3cccc3)c12	15.6%
CN(C)/C=N/c1nc(Sc2ccc(C(F)(F)F)cc2[N+](=O)[O-])n[nH]1	6.73%
CCNC(=O)c1c(O)c2cccc3c2n(c1=O)CC3	8.23%
Cc1cc(C)c(C#N)c(SCC(=O)Nc2nonc2N)n1	1.81%
O=C(Nc1ccc2c(c1)OCO2)c1cn(Cc2ccc(F)cc2)nn1	9.78%
O=C1c2cccnc2C(Nc2ccc(Br)cc2Br)N1Cc1cccs1 (stereo not shown)	6.27%
O=C(Nc1cccc(Cl)c1)NC1CCCCC1	8.14%
Cc1ccc(NC(=O)c2nc[nH]c2C(=O)N[C@@H](C)C(=O)OC(C)(C)C)cc1	9.98%
COc1cccc(CNC(=O)CCC2CCCN(Cc3cc(Cl)ccc3O)C2)c1 (stereo not shown)	-60.6%
C=CCN(C(=O)c1oc2c(Cl)cc(C)cc2c1C)C1CCS(=O)(=O)C1 (stereo not shown)	-22.4%
Cc1ccc(OCCCC(=O)NCc2ccco2)cc1	13.1%
COc1ccc(C(=O)N2CCN(C(=O)Cc3ccccc3)CC2)cc1OC	5.3%
O=C(COC(=O)CNC(=O)c1ccc(Br)o1)Nc1ccc2c(c1)OCCO2	-20.8%
O=C(CCl)N(CCCNC(=O)C(F)(F)F)c1ccc([N+](=O)[O-])cc1	3.26%
COc1cccc(C2[C@H](C)C3(CCN2C)OCCO3)c1.Cl (stereo partly shown)	3.95%
NS(=O)(=O)c1ccc(-c2ccc(C=C3C(=O)c4ccccc4C3=O)o2)cc1	18.5%
CC[C@H](C)[C@@H](C(=O)NCCCCCCCCCCC(=O)N1CCNCC1)n1cc(CCCCCN)nn1	13.8%
Cc1nnc2n(-c3ccccc3)c(=O)c3c4c(sc3n12)COC(C(C)C)C4 (stereo not shown)	-13.6%

SMILES	hERG current change (%, negative = inhibition) at 10uM
CCC[C@@H](CN[C@@H](CNC)C(C)C)NCCCCc1ccccc1	-10.1%
O=C(Oc1ccc(C(=S)N2CCOCC2)cc1)c1ccc(F)cc1	21.4%
CCOc1ccc(S(=O)(=O)N2CCC(C(=O)NCc3ccccn3)CC2)cc1	-25.9%
Cn1ncc([N+](=O)[O-])c1C(=O)Nc1ccc(Cl)cc1	1.61%
CCCCN1C(=O)/C(=c2\sc3nc(=O)c(-c4ccccc4)nn3c2=O)c2ccccc21	11.4%
COc1ccc(Oc2coc3c(CN(C)C)c(O)ccc3c2=O)cc1	17.7%
CCN(NC(=O)C(O)(c1ccc(F)cc1)c1ccc(F)cc1)C(=O)c1ccccc1	7.27%
COC(=O)C1=C(N)Oc2cc(C)n(Cc3ccco3)c(=O)c2C1c1cccc(Cl)c1 (stereo not shown)	-5.24%
O=C(CCn1cncn1)N1CCCC(N2CCN(c3ccc(F)cc3)CC2)C1 (stereo not shown)	-46.6%
O=C(c1ccc(COc2ccc(F)cc2)o1)n1cc(Br)cn1	4.68%
O=C(COC(=O)C1Cc2ccccc2CN1C(=O)c1ccccc1)Nc1ccc(SC(F)F)cc1 (stereo not shown)	-6.89%
Cc1ccccc1NC(=O)Cc1nc(-c2c[nH]c(C(=O)N3CCCC3)c2)cs1	4.63%
Cn1c2c(c(=O)n(C)c1=O)[C@@H]1c3c(ccc4ccccc34)OC[C@@H]1CO2	3.62%
O=C(OC(C(=O)NC1CCCCC1)c1ccccn1)c1cccs1 (stereo not shown)	5.98%
CC(=O)NC(NC(=S)Nc1ccc(S(N)(=O)=O)cc1)C(Cl)(Cl)Cl (stereo not shown)	13%
Cn1c(CCNC(=O)c2ccccc2F)nnc1SCC(=O)Nc1nncs1	12.8%
Cc1[nH]n(-c2ccccc2)c(=O)c1C=Nc1ccc(S(=O)(=O)N=C(N)N)cc1	3.34%
CC(C)c1ccc(CNc2ccc([N+](=O)[O-])cn2)cc1	-7.79%
Cl.Clc1ccc(NCc2ccsc2)cc1	16.4%
N#CC1=C(N)Oc2c(ccc3cccnc23)C1c1ccccc1 (stereo not shown)	-23.9%
COc1cc(/C=C(/NC(C)=O)C(=O)O)cc(Cl)c1OCc1ccc(Br)cc1	-1.19%
CC(C)Cc1nnc(NC(=O)C2CCCC2)s1	9.25%

SMILES	hERG current change (%, negative = inhibition) at 10uM
Cc1ccc(S(=O)(=O)N2CCN(CC(=O)N/N=C\c3cccnc3)CC2)cc1	0.297%
NS(=O)(=O)c1ccc(CCNC(=O)c2ccncc2)cc1	23.1%
Cc1ccc(NC(=O)Nc2ccc3c(c2)N(C)C(=O)CS3)nc1	1.11%
O=C(c1ccc(Cl)s1)N1CCc2ccccc21	-6.88%
Cc1cccc(N=C2C(=O)Nc3c(Cl)cccc32)c1	18.5%
c1ccc(CCn2nnnc2CN2CCc3ccccc32)cc1	-11.4%
Cc1ccccc1N(CC(=O)NC(C)(C)C)C(=O)c1ccc(-c2ccccc2)[nH]1	-5.85%
CC(C)[C@H](NC(N)=O)C(=O)NCCc1ccc(Cl)cc1Cl	-27%
Cc1ccc(NC(=O)Cn2nnc(-c3ccc4c(c3)OCO4)n2)cc1F	11%
C=CCc1cc(/C=C2/NC(=O)N(CC)C2=O)cc(OCC)c1OCc1ccc(C(=O)O)cc1	-5.71%
CCOc1cc2oc(=O)c3c(c2cc1Cl)CCC3	7.75%
COc1cc(/C=N/NC(=O)CCOc2ccccc2C)cc(Br)c1O	-16.4%
CCC(C)Sc1ccc([C@@H]2[C@H]3C(=O)N(CC)C(=O)[C@H]3[C@]3(C(=O)OC)CCCN23)cc1OC.O=C(O)C(F)(F)F (stereo partly shown)	-44.9%
O=S(=O)(NCc1ccccn1)c1ccc2c(c1)OCCO2	10.5%
Cc1ccc(C(=O)NCCN2CCOCC2)c(Cl)c1	5.79%
O=C(CSc1nc(O)c(Cc2ccccc2)c(=O)[nH]1)Nc1ccccc1	8.28%
COC1C(C)=C(C)C(=O)N1Cc1ccccc1 (stereo not shown)	10.9%
COc1ccc(C)cc1NC(=O)C(OC(=O)CNC(=O)c1cccc(F)c1)c1ccccc1 (stereo not shown)	-0.966%
COc1ccc(C(=O)OCC(=O)Nc2nnc(-c3ccccc3)o2)cc1	1.81%
COc1cccc(-c2nnc(SCC(=O)OC(C)C)n2Cc2ccco2)c1	-15.3%
O=C(COC(=O)c1cccs1)NCc1ccco1	0.629%
COc1ccc(OCCOC(=O)CCS(=O)(=O)c2ccc(C)cc2)cc1	-7.59%
